# Measured values published in the supplement of paper PMC4894684.
# Where a name gives a salt, the structure may show the parent alone. ± gives the standard deviation of the averaged measurements. Screen size: about 1,000 compounds; about 15 (2%) showed an effect of 50% or more. The list shows a part of the results.
# Tested on: HFF
# Assay: uninfected host cell viability relative to vehicle control; higher = less host cell toxicity
# Conditions: 5 µM; 72 h; oxygen 21 %
# 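Further: confluent HFF monolayers, run in parallel with the Toxoplasma growth screen as a host toxicity counterscreen.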
row,Compound,uninfected host cell viability
1,O=C1C(Cl)=C(NCCN2CCOCC2)C(=O)c2ncccc21,34.44 ± 0.16%
2,COc1cc2c(cc1OC)-c1cc3nc4ccccc4nc3n1C(C)(C)C2,95.5 ± 3%
3,COc1ccccc1OCCNCC(O)COc1cccc2[nH]c3ccccc3c12 (stereo not drawn) [Carvedilol],92.4 ± 0.94%
4,COc1ccc(CCCOC(Cn2ccnc2)c2ccc(OC)cc2)cc1 (stereo not drawn),96.51 ± 0.62%
5,O=C(NCC1CCCCN1)c1cc(OCC(F)(F)F)ccc1OCC(F)(F)F (stereo not drawn) [Flecainide acetate],92.7 ± 6.4%
6,CCN1CCCC1CNC(=O)c1cc(S(=O)(=O)CC)c(N)cc1OC (stereo not drawn) [Amisulpride],87.2 ± 0.18%
7,Nc1nc(N)nc(-c2cc(Cl)ccc2Cl)n1 [Irsogladine maleate],88.9 ± 3.2%
8,CC(C)[C@H](CO)Nc1nc(Nc2cc(N)cc(Cl)c2)c2ncn(C(C)C)c2n1 [Aminopurvalanol A],73.3 ± 1.1%
9,O=C(c1ccc(OCCN2CCCCC2)cc1)c1c(-c2ccc(O)cc2)sc2cc(O)ccc12 [Raloxifene hydrochloride],94.4 ± 2.2%
10,COc1cc(C[C@H]2C(=O)OC[C@@H]2Cc2ccc(OC)c(OC)c2)ccc1O [Arctigenin],90 ± 1.6%
11,CN(C)[C@@H]1CCc2[nH]c3ccc(NC(=O)c4ccc(F)cc4)cc3c2C1,93.5 ± 1.4%
12,CCOC(=O)C1=C(C)NC(C)=C(C(=O)OC)C1c1cccc([N+](=O)[O-])c1 (stereo not drawn) [Nitrendipine],85.5 ± 2%
13,Cc1nc2c(OCc3ccccc3)cccn2c1CC#N,86.4 ± 2.8%
14,c1ccc(N2CCN(CCCOc3ccc4c(c3)OCO4)CC2)cc1 [BP 554 maleate],90.9 ± 6.9%
15,N[C@@H](C(=O)O)c1ccc(O)c(C(=O)O)c1 [(R)-3-Carboxy-4-hydroxyphenylglycine],87 ± 2.7%
16,COc1cc(N)c(Cl)cc1C(=O)NC1CCN(CCCOc2ccc(F)cc2)CC1OC (stereo not drawn) [Cisapride],90.89 ± 0.45%
17,CCN(CC)CCCCC1CCN(CC(=O)N2c3ccccc3C(=O)Nc3cccnc32)CC1,89.2 ± 4.3%
18,COc1ccccc1N1CCN(CCN2C(=O)CC3(CCCC3)CC2=O)CC1 [BMY 7378 dihydrochloride],94.8 ± 2.5%
19,"C[C@H](NC(=O)/C(C#N)=C/c1ccc(O)c(O)c1)c1ccccc1 [Tyrphostin B44, (+) enantiomer]",86.1 ± 2%
20,O=S(=O)(NCCNC/C=C/c1ccc(Br)cc1)c1cccc2cnccc12 [H 89 dihydrochloride],83 ± 1.2%
21,CN(C)CCCC1(c2ccc(F)cc2)OCc2cc(C#N)ccc21 (stereo not drawn) [Citalopram hydrobromide],88.98 ± 0.74%
22,CCn1c(=O)n(C2=C(CO)CN(CC3CCCCCCC3)CC2)c2ccccc21,94 ± 4.1%

row,Compound,uninfected host cell viability
1,O=C1c2ccccc2C(Cc2ccncc2)(Cc2ccncc2)c2ccccc21 [XE 991 dihydrochloride],96.4 ± 1.7%
2,O=C1CCc2c(ccc3ccccc23)O1 [Splitomicin],84 ± 0.96%
3,Cc1c(OCC(F)(F)F)ccnc1C[S+]([O-])c1nc2ccccc2[nH]1 (stereo not drawn) [Lansoprazole],81.3 ± 3.4%
4,O=C(Nc1ccc(C(F)(F)F)cn1)N1CCN(c2ncccc2C(F)(F)F)CC1,85.9 ± 1.2%
5,O=C(O)c1ccccc1Nc1cccc(OCc2ccc3ccccc3n2)c1 [SR 2640 hydrochloride],86.3 ± 4.8%
6,CC(=O)NCCc1c(Cc2ccccc2)[nH]c2ccccc12 [Luzindole],101 ± 4.8%
7,CCCCOC(=O)c1cc2c(cn1)[nH]c1ccccc12,81.5 ± 0.91%
8,O=S(=O)(c1cccc2cnccc12)N1CCCNCC1 [Fasudil hydrochloride],90.57 ± 0.53%
9,CCc1nn(CCCN2CCN(c3cccc(Cl)c3)CC2)c(=O)n1CCOc1ccccc1 [Nefazodone hydrochloride],86.6 ± 1.3%
10,CCC(=O)O[C@]1(C(=O)SCF)[C@H](C)C[C@H]2[C@@H]3C[C@H](F)C4=CC(=O)C=C[C@]4(C)[C@@]3(F)[C@@H](O)C[C@@]21C [Fluticasone propionate],92.6 ± 2.5%
11,CCc1cc(Cl)c(OC)c(C(=O)NC[C@@H]2CCCN2CC)c1O [Eticlopride hydrochloride],87.7 ± 5.2%
12,NS(=O)(=O)c1nn2cc(-c3ccccc3)nc2s1,107 ± 5.2%
13,C=CCN1CCc2cc(O)c(O)cc2C(c2ccccc2)C1 (stereo not drawn),94.2 ± 3.8%
14,O=C(NCCCCCCNC(=O)ON=C1CCCCC1)ON=C1CCCCC1,89.5 ± 1.6%
15,c1ccc2sc(N3CCN(Cc4ccc5c(c4)OCO5)CC3)nc2c1 [2-[1-(4-Piperonyl)piperazinyl]benzothiazole],88.2 ± 0.95%
16,O=C(c1ccc(F)cc1)C1CCN(CCn2c(=S)[nH]c3ccccc3c2=O)CC1 [Altanserin hydrochloride],83.2 ± 2.8%
17,Cc1ccc(Sc2cncc3sc(C(N)=O)cc23)cc1,77.27 ± 0.73%
18,O=C(O)c1cc(=O)c2ccccc2[nH]1 [Kynurenic acid],93.06 ± 0.4%
19,N[C@H](C(=O)O)c1ccc(C(=O)O)c(O)c1 [(S)-4-Carboxy-3-hydroxyphenylglycine],85.73 ± 0.091%
20,O=c1cc(N2CCOCC2)oc2c(-c3ccccc3)cccc12,81.6 ± 2.9%
21,CC(=Nc1ccccc1N)c1c(C)cc(=O)n(O)c1O,96.6 ± 2.4%
22,OCC(CO)N[C@H]1C[C@](O)(CO)[C@@H](O)[C@H](O)[C@H]1O [Voglibose],94.9 ± 2.8%

row,Compound,uninfected host cell viability
1,COc1ccc(-c2oc3cc(OC)ccc3c2C(=O)c2ccc(C#N)cc2)cc1,108 ± 1.2%
2,Cc1nc2sccn2c(=O)c1CCN1CCC(=C(c2ccc(F)cc2)c2ccc(F)cc2)CC1 [Ritanserin],87.9 ± 4.6%
3,CN1CCN2c3ccccc3Cc3ccccc3C2C1 (stereo not drawn) [Mianserin hydrochloride],84.2 ± 0.26%
4,CCS(=O)(=O)N(C)[C@H]1c2cc(C#N)ccc2OC(C)(C)[C@@H]1O (racemic) [Chromanol 293B],91.3 ± 6.7%
5,CC(C)SC(=N)N [S-Isopropylisothiourea hydrobromide],86.5 ± 5.4%
6,CCc1ccc(OCc2ccccc2C(=O)Nc2ccc3nc(C)cc(N)c3c2)cc1,15 ± 0.61%
7,CC1(COc2ccc(CC3SC(=O)NC3=O)cc2)CCCCC1 (stereo not drawn) [Ciglitazone],88.8 ± 1.9%
8,COc1ccc(Br)cc1S(=O)(=O)NC(=O)/C=C/c1ccccc1Cc1ccc2ccccc2c1,88.7 ± 4.6%
9,CN1CCN(C(=O)c2nc3ccc(Cl)cc3[nH]2)CC1,86.1 ± 1.3%
10,CN(C(=O)CCCOc1ccc2[nH]c(=O)ccc2c1)C1CCCCC1 [Cilostamide],96.4 ± 5.6%
11,NC(C(=O)O)c1ccc(C(=O)O)c(C(=O)O)c1 (stereo not drawn),83.7 ± 3.5%
12,O=C(O)c1ccc(C=C2SC(=S)N(c3cccc(C(F)(F)F)c3)C2=O)cc1,87.8 ± 0.91%
13,CCO/C(O)=C1\C(C)=NC(c2ccccc2)=C(C(=O)OCc2ccc([N+](=O)[O-])cc2)C1C#Cc1ccccc1 (stereo not drawn),89.5 ± 0.55%
14,CC12CC3CC(C)(C1)CC(N)(C3)C2 [Memantine hydrochloride],82.3 ± 1.4%
15,COC(=O)[C@H]1[C@H]2C[C@H]3c4[nH]c5ccccc5c4CCN3C[C@H]2CC[C@@H]1O [Rauwolscine hydrochloride],92.5 ± 6%
16,COP(=O)(OC)OC(c1ccc(Cl)cc1)P(=O)(OC)OC (stereo not drawn),89.4 ± 8.1%
17,CC(C)NCC(O)COc1cccc2[nH]ccc12 (stereo not drawn) [Pindolol],86.3 ± 1.6%
18,CC(C)C(=O)c1c(C(C)C)nn2ccccc12 [Ibudilast],99.2 ± 1.4%
19,Cc1ccc(C(=O)Cn2c3c(sc2=N)CCCC3)cc1 [Pifithrin- α hydrobromide],88.7 ± 2%
20,Nc1nc(NCC2CCC(CNS(=O)(=O)c3cccc4ccccc34)CC2)nc2ccccc12 (stereo not drawn),58.6 ± 2.7%
21,Cn1nnc2c(C(N)=O)ncn2c1=O [Temozolomide],88.2 ± 1.5%
22,C=C1C(=O)O[C@H]2[C@H]1CC/C(C)=C/CC[C@@]1(C)O[C@@H]21 [Parthenolide],111 ± 3.5%

row,Compound,uninfected host cell viability
1,O=C1NC(c2cccc([N+](=O)[O-])c2)=CCN1c1ccccc1O [Icilin],90 ± 2.6%
2,CCCN(CC1CC1)c1nc(C)nc(Nc2c(Cl)cc(Cl)cc2Cl)c1Cl,91.8 ± 3.6%
3,CCCNC(=O)N1N=C(c2ccc(N)cc2)c2cc3c(cc2C1C)OCO3 (stereo not drawn),88.9 ± 3.7%
4,CC(C(O)c1ccc(O)cc1)N1CCC(Cc2ccccc2)CC1 (stereo not drawn) [Ifenprodil hemitartrate],85.74 ± 0.15%
5,c1ccc2cc(C3=NCCN3)ncc2c1 [BU 226 hydrochloride],86.34 ± 0.45%
6,"Cc1ccc(OCC(O)C(C)NC(C)C)c2c1CCC2 (stereo not drawn) [ICI-118,551 hydrochloride]",82.7 ± 2.3%
7,CCCn1c(=O)c(C)cn2nc(N)nc12,84 ± 2.8%
8,CCN(c1ccccc1)c1cc(=NC)n(C)c(C)n1,92.2 ± 1.3%
9,CN1CCN2c3ncccc3Cc3ccccc3C2C1 (stereo not drawn) [Mirtazepine],85.7 ± 4%
10,CCCOc1ccccc1-c1nc2[nH]nnc2c(=O)[nH]1 [Zaprinast],85.7 ± 3.4%
11,COc1cc(SC)ccc1C(=O)N1CCC(Cc2ccccc2)CC1,97.9 ± 1.6%
12,CC#C[C@]1(O)CC[C@H]2[C@@H]3CCC4=CC(=O)CCC4=C3[C@@H](c3ccc(N(C)C)cc3)C[C@@]21C [Mifepristone],98.4 ± 3.2%
13,COc1ccc(Cl)cc1C(=O)NCCc1ccc(S(=O)(=O)NC(=O)NC2CCCCC2)cc1 [Glibenclamide],88.3 ± 5.3%
14,CCN(CC)CCOCCOC(=O)C1(c2ccccc2)CCCC1 [Carbetapentane citrate],89.7 ± 1.5%
15,O=c1nc2ccccc2c2n1CC(CN1CCN(c3ccccc3)CC1)N2 (stereo not drawn),87.5 ± 1.9%
16,COc1cc(NC(=O)c2ccccn2)ccc1Cl,95.9 ± 2.8%
17,O=c1c(O)c(-c2ccc(O)cc2)oc2cc(O)cc(O)c12 [Kaempferol],83.5 ± 1.3%
18,N#C/C(=C(/N)Sc1ccc(N)cc1)c1ccccc1C(F)(F)F,87.02 ± 0.63%
19,COc1cc(OC)c(NC(=O)Nc2cc(C)on2)cc1Cl,82.4 ± 2.5%
20,Nc1nc2c(cnn2CCc2ccccc2)c2nc(-c3ccco3)nn12,96.8 ± 2.3%
21,COCCNC(=O)COc1ccc(OCCNC[C@H](O)COc2ccccc2)cc1 [ZD 7114 hydrochloride],83.8 ± 2.3%
22,CN[C@H]1CC[C@@H](c2ccc(Cl)c(Cl)c2)c2ccccc21 [Sertraline hydrochloride],90.3 ± 2.9%
